This passage reports self-cleavage results from the RNAGym collection of RNA variant scans (doi:10.7554/elife.90254).

Read counts are not given, so values of variants with three or more changes are uncertain.

B1: LINE1-mini (parent)
chain: GGCAGAGCUCAACACAGCGUGGCAAAGUGGCUGUGGCUAGACUGCC

This series covers variants of B1. Nature of the series: self-cleavage, relative activity (ratio to wild type); higher = more cleavage; in vitro, sequencing; the parent is a self-cleaving ribozyme.
With U20G G29C G40A, the self-cleavage is 0.02.

Turning to G21C U28C A39U, the self-cleavage stood at 0.35.

Regarding G21A G27A U28G G29A C37G, the self-cleavage stood at 0.31.

For the variant G21A C23U A25C G27A, the self-cleavage was found to be 0.91.

In the case of G21C C42A C46U, the self-cleavage amounted to 0.1.

As for U20G G21U C23G A24C G44A, the self-cleavage came to 0.22.

As to G21U A26U C46A, the self-cleavage is 1.08.

On to G21U A25U G27A U38C C46A, for which the self-cleavage was 0.02.

On to G21A C23A G33C, for which the self-cleavage is 0.04.

Consider U20C U28A U34G G35A U38A C42A, for which the self-cleavage worked out at 0.01.

Turning to U20G A24U G27A, the self-cleavage is 0.35.

As for G21A G29U U32A, the self-cleavage came to 1.43.

As for U20G A25U G35U G36U, the self-cleavage came out at 0.06.

G21A C31G A39U: the self-cleavage came out at 0.04.

Regarding G21A A26U U32A U34G, the self-cleavage is 0.01.

Regarding G21U G22A C23A C42A G44C, the self-cleavage stood at 0.08.

As to U20G U38G U43G, the self-cleavage was found to be 0.

Take G21A A25C C42A: the self-cleavage came to 0.02.

Consider G21C G36C A41U, for which the self-cleavage was 0.08.

As to U20G A39C A41U, the self-cleavage is 0.23.

Consider U20G G21U G22U, for which the self-cleavage came to 0.32.

Regarding U20G U34C U43C, the self-cleavage was found to be 0.02.

Turning to U20G G29C U34C, the self-cleavage was determined as 0.09.

G21A G29A G30A: the self-cleavage is 1.15.

Regarding U20G A25G U28A C46U, the self-cleavage came out at 0.25.

Regarding U20G G21U G35U, the self-cleavage came to 0.02.

As for G21A C31G U34A G44U, the self-cleavage came out at 0.03.

In the case of G21U C23U A25U C45U, the self-cleavage was determined as 2.14.

For G21U A39G A41U, the self-cleavage was determined as 0.04.

For the variant G21U G22C G33U, the self-cleavage came to 0.05.

As for G21C G22C G27A G36A G40A G44U, the self-cleavage was found to be 0.15.

Regarding G21A G36A G44A, the self-cleavage is 0.11.

As to G21A G36A G44U, the self-cleavage amounted to 0.07.

G21C C23A C42A: the self-cleavage stood at 0.27.

With G21U C37G G40U, the self-cleavage came out at 0.07.

As for U20G A26C C37G A41U C45A, the self-cleavage is 0.06.

Turning to G21C C23U U28A, the self-cleavage came out at 0.16.

Take U20G C31G C37U: the self-cleavage came out at 0.02.

As to G21C G36U U38A, the self-cleavage amounted to 0.01.

For U20G A25U U28C, the self-cleavage turned out to be 1.78.

Regarding G21A A26U U32G G35A G36C, the self-cleavage is 0.02.

In the case of G21A A24U U28C G30U C31U, the self-cleavage is 1.14.

On to U20G C42U G44A, for which the self-cleavage worked out at 0.12.

With U20G G21U A41U C46A, the self-cleavage amounted to 0.94.

For the variant U20G U28A C37G, the self-cleavage came to 0.01.

With G21A G22U G27C C46G, the self-cleavage worked out at 0.82.

Take G21C C23U G36A: the self-cleavage amounted to 0.05.

For the variant G21U C23G G40U, the self-cleavage is 0.27.

As for G21C U32G G35C C37G A39U, the self-cleavage stood at 0.1.

On to G21C G29A U32C, for which the self-cleavage came to 1.26.

In the case of G21A A39G A41U G44U, the self-cleavage was 0.07.

Take G21C G30U G36C C37G: the self-cleavage came out at 0.03.

Regarding G21U G22A G30U, the self-cleavage was determined as 1.66.

As for U20G G21A G29C A41C, the self-cleavage is 0.02.

Turning to G21U C42A C45G, the self-cleavage is 0.07.

Turning to G21C G22U C23G, the self-cleavage was found to be 0.25.

With G21A C23G G33C A41U, the self-cleavage was 0.06.

Regarding G21A G22C G33A, the self-cleavage amounted to 0.05.

With G21A A25C C37U C45A, the self-cleavage was 0.1.

With U20G U38A A39C, the self-cleavage was 0.27.

G21A A24C A25U G36A G40C: the self-cleavage is 0.61.

As to G21U A26C G29A, the self-cleavage is 0.69.

Regarding G21A G29U C45A, the self-cleavage worked out at 0.34.

Consider G21C G44U C46U, for which the self-cleavage came out at 0.07.

As for U20G A25C A39C U43C, the self-cleavage worked out at 0.1.

With U20C U28A G29C, the self-cleavage was found to be 0.46.

As to G21A A25G A26U U34A, the self-cleavage was determined as 0.03.

G21U G22A A39G: the self-cleavage was determined as 0.02.

For G21U A39C C46A, the self-cleavage was 0.08.

In the case of U20G C37G U38A C45A, the self-cleavage stood at 0.01.

Regarding U20G U28C G29U C31U A39C, the self-cleavage stood at 0.21.

With U20G A24G G30U U32C G44A, the self-cleavage is 0.05.

G21C G36U C42G: the self-cleavage stood at 0.02.

Take U20G U34C C42U: the self-cleavage stood at 0.01.

In the case of U20G G21U G29U, the self-cleavage was determined as 0.26.

As to G21C C31A G36C A41U, the self-cleavage was determined as 0.12.

U20G G30U G44U: the self-cleavage came to 0.03.

Turning to G21C G30C C31A G40U C46A, the self-cleavage stood at 0.04.

U20G G27A U28A: the self-cleavage was 0.11.

Turning to U20G G27A C37A, the self-cleavage was 0.03.

For G21A A25G C42U, the self-cleavage came out at 0.7.

For G21C C31U G33U C37A G44A, the self-cleavage was determined as 0.13.

On to U20G A39G A41C C42G, for which the self-cleavage is 0.02.

On to G21U C31A U34C, for which the self-cleavage was 0.04.

With G21C C31A C37A, the self-cleavage was 0.34.

Turning to G21A G30A C46U, the self-cleavage was found to be 2.02.

With U20G G44U C46G, the self-cleavage was 0.04.

On to G21A U32G G35A C46A, for which the self-cleavage was 0.06.

Take G21A G35U U38G G44A: the self-cleavage turned out to be 0.01.

For U20G G21C G29C G40A, the self-cleavage was 0.04.

Turning to G21A C23U U28A, the self-cleavage is 0.58.

Consider U20G A24G A25G, for which the self-cleavage was 0.29.

Turning to G21C A26C U34G, the self-cleavage is 0.14.

Consider U20C U32C C37G, for which the self-cleavage was determined as 0.03.

Turning to G21C G30A C37G, the self-cleavage stood at 0.

As to U20G U34G A41G, the self-cleavage came out at 0.01.

G21U A25C U43C: the self-cleavage came to 0.15.

On to G21U A24G U43C, for which the self-cleavage was found to be 0.2.

With U20G G30A U32A, the self-cleavage amounted to 0.05.

G21C C31G G44C: the self-cleavage came out at 0.02.

Turning to G21U A24U G27A G30U, the self-cleavage was determined as 0.65.

Regarding U20G A26U U32A C45A C46G, the self-cleavage stood at 0.01.

Turning to G21C A24U A26G G44U, the self-cleavage is 0.31.

Regarding G21C G35U G44U, the self-cleavage is 0.05.

For the variant U20G C37U G44C, the self-cleavage was found to be 0.03.

For G21C A26G G36U, the self-cleavage came out at 0.02.

Turning to U20C U32A A39C G40U, the self-cleavage is 0.04.

As for U20G G36U U43A, the self-cleavage worked out at 0.02.

For U20G U34A G40C, the self-cleavage came to 0.04.

Take U20G A26G C37U G40U: the self-cleavage amounted to 0.02.

As for U20G A24G A39U, the self-cleavage amounted to 1.38.

On to G21C C23A A25U G29U, for which the self-cleavage came to 0.79.

Regarding G21A G22C G36A, the self-cleavage came out at 0.03.

In the case of U20G G22A G29A, the self-cleavage worked out at 0.24.

G21A U28C G29U: the self-cleavage was found to be 1.18.

Turning to U20C U28C C31U, the self-cleavage was found to be 0.36.

In the case of G21C U28A A41C U43G, the self-cleavage worked out at 0.01.

Turning to U20G A25C G36C, the self-cleavage stood at 0.03.

Take U20G U43A C45A C46U: the self-cleavage was 0.

For U20G G21C G40A C45U C46U, the self-cleavage stood at 0.78.

For G21A A24U C37A A41G, the self-cleavage stood at 0.57.

For the variant G21A G22A A26G A41U, the self-cleavage is 0.68.

G21C C23A U38C: the self-cleavage was 0.17.

With U20G G22U U43A, the self-cleavage amounted to 0.11.

With G21A U28C A41G, the self-cleavage is 0.54.

Consider U20G G21U C46A, for which the self-cleavage was 1.76.

For G21A C37A C45A, the self-cleavage was determined as 0.02.

Take G21A A25U G30U: the self-cleavage stood at 0.98.

With G21A U38C A41C C42U, the self-cleavage worked out at 0.06.

Regarding G21A A26C A39C, the self-cleavage amounted to 0.25.

In the case of G21C G27C U43A, the self-cleavage turned out to be 0.09.

For the variant G21A C23A A24C, the self-cleavage worked out at 0.27.

As for G21C C42G G44U, the self-cleavage was found to be 0.03.

On to U20G C31A U34G, for which the self-cleavage was 0.13.

Consider G21U A25U G33U, for which the self-cleavage amounted to 0.05.

For G21C A25U U28A, the self-cleavage came out at 0.42.

For the variant G21C U28A C42U, the self-cleavage was 0.09.

Take U20G G27C G36U C37U: the self-cleavage stood at 0.01.

In the case of U20G C31G G40C, the self-cleavage worked out at 0.01.

For the variant G21A C31A G33C, the self-cleavage was 0.14.

Consider U20G G30C C37U, for which the self-cleavage was 0.09.

Turning to G21A U28G A41G, the self-cleavage worked out at 0.2.

Consider G21A G30A G35U, for which the self-cleavage was determined as 0.08.

As to U20G A26G G29C A41U, the self-cleavage was found to be 0.1.

Turning to U20C U28G G29U, the self-cleavage was 0.17.

Regarding U20G G21A G40U C42A, the self-cleavage was determined as 0.13.

With G21C U32C G36C G40C, the self-cleavage stood at 0.04.

With U20C U34G G44C C45G, the self-cleavage was 0.03.

For U20G G36A G40A, the self-cleavage stood at 0.33.

On to U20G G22A A39C, for which the self-cleavage amounted to 0.04.

Regarding U20G A24U C45G, the self-cleavage came out at 0.05.

On to G21U A24G A26C, for which the self-cleavage amounted to 1.22.

For the variant G21C A26C U28A U34G, the self-cleavage stood at 0.64.

As for G21A G33U U43C, the self-cleavage amounted to 0.03.

G21A G22A C42A: the self-cleavage amounted to 0.11.

Regarding G21U A39G C42A, the self-cleavage came to 0.01.

With U20G G21A C31U U38C U43A, the self-cleavage came out at 0.

As to U20C U34G A39U, the self-cleavage was 0.09.

As to U20G U34G U43A, the self-cleavage stood at 0.02.

G21C G22A C23G: the self-cleavage is 0.3.

Turning to G21C A25U A26G, the self-cleavage is 0.74.

For the variant G21A G27C U28C G33C G40U, the self-cleavage was determined as 0.01.

Regarding G21A G22A A39C G44U C46U, the self-cleavage turned out to be 0.04.

For the variant G21C A25U U32A G33U G36A G40A, the self-cleavage amounted to 0.12.

As to G21C G22U C23A C45G, the self-cleavage was found to be 0.83.

For G21A G35C U38C G40U, the self-cleavage came out at 0.08.

As to G21A C31U U34A, the self-cleavage worked out at 0.02.
